Some of the results follow.
Key:
Assay in all cases: glycan array binding signal (z-score within array); higher = stronger binding
Details in all cases: glycan notation: IUPAC condensed, linker removed
[1] = molecular target: GlcNAc(b1-2)Gal(b1-3)GalNAc
Summary of the method: (§1)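 From the Consortium for Functional Glycomics database, 3228 arrays were curated, keeping only those whose protein sequence was available. Binding is given as a within-array Z-score averaged across arrays sharing a protein sequence and across linkers. Negative Z-scores can be read as non-binding.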

[2] = molecular target: GlcNAc(b1-2)Man(a1-3)[GlcNAc(b1-2)Man(a1-6)]Man(b1-4)GlcNAc(b1-4)GlcNAc
Summary of the method: as §1

[3] = molecular target: GlcNAc(b1-2)Man(a1-3)[GlcNAc(b1-2)Man(a1-6)]Man(b1-4)GlcNAc(b1-4)[Fuc(a1-6)]GlcNAc
Summary of the method: as §1

[4] = molecular target: GlcNAc(b1-2)Man(a1-3)[GlcNAc(b1-4)][GlcNAc(b1-2)Man(a1-6)]Man(b1-4)GlcNAc(b1-4)GlcNAc
Summary of the method: as §1

[5] = molecular target: GlcNAc(b1-2)Man(a1-3)[GlcNAc(b1-4)][GlcNAc(b1-2)Man(a1-6)]Man(b1-4)GlcNAc(b1-4)[Fuc(a1-6)]GlcNAc
Summary of the method: as §1

[6] = molecular target: GlcNAc(b1-2)[GlcNAc(b1-4)]Man(a1-3)[GlcNAc(b1-2)Man(a1-6)]Man(b1-4)GlcNAc(b1-4)GlcNAc
Summary of the method: as §1

[7] = molecular target: GlcNAc(b1-2)[GlcNAc(b1-4)]Man(a1-3)[GlcNAc(b1-4)][GlcNAc(b1-2)Man(a1-6)]Man(b1-4)GlcNAc(b1-4)GlcNAc
Summary of the method: as §1

[8] = molecular target: GlcNAc(b1-2)[GlcNAc(b1-4)]Man(a1-3)[GlcNAc(b1-4)][GlcNAc(b1-2)[GlcNAc(b1-6)]Man(a1-6)]Man(b1-4)GlcNAc(b1-4)GlcNAc
Summary of the method: as §1

[9] = molecular target: GlcNAc(b1-2)[GlcNAc(b1-4)]Man(a1-3)[GlcNAc(b1-4)][GlcNAc(b1-2)[GlcNAc(b1-6)]Man(a1-6)]Man(b1-4)GlcNAc(b1-4)[Fuc(a1-6)]GlcNAc
Summary of the method: as §1

[10] = molecular target: GlcNAc(b1-2)[GlcNAc(b1-6)]Man(a1-6)[GlcNAc(b1-2)Man(a1-3)]Man(b1-4)GlcNAc(b1-4)GlcNAc
Summary of the method: as §1

[11] = molecular target: GlcNAc(b1-2)[GlcNAc(b1-6)]Man(a1-6)[GlcNAc(b1-2)Man(a1-3)]Man(b1-4)GlcNAc(b1-4)[Fuc(a1-6)]GlcNAc
Summary of the method: as §1

[12] = molecular target: GlcNAc(b1-2)[GlcNAc(b1-6)]Man(a1-6)[GlcNAc(b1-4)][GlcNAc(b1-2)Man(a1-3)]Man(b1-4)GlcNAc(b1-4)GlcNAc
Summary of the method: as §1

[13] = molecular target: GlcNAc(b1-3)Fuc
Summary of the method: as §1

[14] = molecular target: GlcNAc(b1-3)Gal
Summary of the method: as §1

[15] = molecular target: GlcNAc(b1-3)Gal(b1-3)GalNAc
Summary of the method: as §1

[16] = molecular target: GlcNAc(b1-3)Gal(b1-4)Glc
Summary of the method: as §1

[17] = molecular target: GlcNAc(b1-3)Gal(b1-4)GlcNAc
Summary of the method: as §1

[18] = molecular target: GlcNAc(b1-3)Gal(b1-4)GlcNAc(b1-2)Man(a1-3)[GlcNAc(b1-3)Gal(b1-4)GlcNAc(b1-2)Man(a1-6)]Man(b1-4)GlcNAc(b1-4)GlcNAc
Summary of the method: as §1

[19] = molecular target: GlcNAc(b1-3)Gal(b1-4)GlcNAc(b1-2)Man(a1-3)[GlcNAc(b1-3)Gal(b1-4)GlcNAc(b1-2)Man(a1-6)]Man(b1-4)GlcNAc(b1-4)[Fuc(a1-6)]GlcNAc
Summary of the method: as §1

[20] = molecular target: GlcNAc(b1-3)Gal(b1-4)GlcNAc(b1-2)[GlcNAc(b1-3)Gal(b1-4)GlcNAc(b1-6)]Man(a1-6)[GlcNAc(b1-3)Gal(b1-4)GlcNAc(b1-2)Man(a1-3)]Man(b1-4)GlcNAc(b1-4)GlcNAc
Summary of the method: as §1

[21] = molecular target: GlcNAc(b1-3)Gal(b1-4)GlcNAc(b1-3)Gal(b1-4)GlcNAc
Summary of the method: as §1

[22] = molecular target: GlcNAc(b1-3)Gal(b1-4)GlcNAc(b1-3)Gal(b1-4)GlcNAc(b1-2)Man(a1-3)[GlcNAc(b1-3)Gal(b1-4)GlcNAc(b1-3)Gal(b1-4)GlcNAc(b1-2)Man(a1-6)]Man(b1-4)GlcNAc(b1-4)GlcNAc
Summary of the method: as §1

B1: GS13455A-bfa-343-25-343 (Bacteroides fragilis) (protein)
chain: KDEIQIVDQDTSWQMDNKYIEEDIREQLGIDPFTDLVYLGYYGNPYTQLEAINDLVNTTLVGKNELSFKVKVTKPYKEDIKVNLMKEDKLVTDFPEMAEGIPLFPSENCTFEGGVLKAGELETTVKLTLKDVEKLNNLSGYVMAIKLTMEGSHEHLAIARTRSSYFVKLNLSIRLDNIDSSNKKIEGKGFNKEISFKSDIRPDKLGSLNDGNFTANNWYTSNANNYLTIILPEKQSLKGFRLDTNTSPSGSYMLKSCRVMVETPDGNWVNHGVFDRKSMDGIAYISFKKPVECTKVRFENMMAFNGRFSVDVNEVTAFR
glycan array binding signal (z-score) [1]: -0.219
glycan array binding signal (z-score) [2]: 0.077
glycan array binding signal (z-score) [3]: -0.409
glycan array binding signal (z-score) [4]: 0.295
glycan array binding signal (z-score) [5]: -0.366
glycan array binding signal (z-score) [6]: -0.39
glycan array binding signal (z-score) [7]: -0.496
glycan array binding signal (z-score) [8]: -0.233
glycan array binding signal (z-score) [9]: 0.855
glycan array binding signal (z-score) [10]: -0.513
glycan array binding signal (z-score) [11]: 0.286
glycan array binding signal (z-score) [12]: -0.262
glycan array binding signal (z-score) [13]: -0.449
glycan array binding signal (z-score) [14]: 0.339
glycan array binding signal (z-score) [15]: -0.381
glycan array binding signal (z-score) [16]: 0.295
glycan array binding signal (z-score) [17]: 0.36
glycan array binding signal (z-score) [18]: 0.549
glycan array binding signal (z-score) [19]: 0.601
glycan array binding signal (z-score) [20]: -0.6
glycan array binding signal (z-score) [21]: -0.86
glycan array binding signal (z-score) [22]: 0.769

— the supplement of paper PMC8728848
